Laboratory results reported in PubChem BioAssay AID588855 (National Center for Advancing Translational Sciences (NCATS), 2011).
The whole screen tested about 410,000 compounds, of which about 5,000 (1.2%) were called active. The inconclusive results got no clear call from the source; some entries with a clear call stand among them for comparison. The call rests on the fitted dose curve; in most records, active means well fitted inhibition curve with a large enough effect; inconclusive means small, poorly fitted or top-dose-only effect; inactive means no such curve, though single readings can be large or run the other way. Where the call is inconclusive, the potency comes from a doubtful curve fit.

Experiment: qHTS for Inhibitors of TGF-b; further: nearly all actives have a fitted effect of over 65% in size
Conditions: HepG2 CAGA-GFP TGF-b/SMAD3 reporter, GFP fluorescence, 18 h, TGF-beta stimulated, 500 pg/mL final; series mostly up to 46.1 µM
How it was run: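 Read-out: total well GFP (ex488/em500-530) summed from mean per-cell fluorescence. Cells: HEPG2 CAGA-GFP, 1% FBS DMEM, 18 h at 37 degrees C with 500 pg/mL final TGF-beta. Unstimulated wells served as the full-inhibition control; stimulated DMSO wells = 0%.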
Potency means the concentration at half of the fitted maximal effect; tags describe the fitted curve by direction and shape.

Row | Compound | Potency
1 | CC[C@@H]1[C@H]2CCCC(=O)N3CC[C@@H](C[C@@H]1Nc1ccccc1)[C@@H]23 | inconclusive: 11.2 µM [inhibitor, single point]
2 | COc1cc2c(NC3CCN(C)CC3)nc(N3CCCN(C)CC3)nc2cc1OCCCCCCN(C)C | inconclusive: 15.8 µM [inhibitor, partial curve, poor fit]
3 | COc1cccc(N2CCN(CC(=O)Nc3ccc(S(=O)(=O)N4CCCCCC4)cc3)CC2)c1 | inactive
4 | COc1ccc(CN2CCC(N(CCc3ccccc3)Cc3ccccc3)CC2)c(OC)c1 | inconclusive: 35.5 µM [inhibitor, single point]
5 | CCCn1cc(S(=O)(=O)c2ccccc2)c(=O)c2cc(F)c(N3CCCCCC3)cc21 | inconclusive: 20 µM [inhibitor, single point]
6 | Cc1nn(Cc2ccc(C(=O)Nc3ccccc3C(F)(F)F)o2)c(C)c1Br | inconclusive: 35.5 µM [inhibitor, single point]
7 | CC(Nc1nc(-c2ccc(F)cc2)cs1)c1nc2cc(Cl)c(Cl)cc2n1CCCO (stereo not drawn) | inconclusive: 35.5 µM [inhibitor, single point]
8 | COc1ccc2sc(N(Cc3cccnc3)C(=O)C3COc4ccccc4O3)nc2c1 (stereo not drawn) | inactive
9 | Oc1ccc(N=C/C=C/c2cccc(Br)c2)cc1-c1nc2ccccc2s1 | inactive
10 | CCCCCCCNC(=O)C1(CC2CC(c3cccc(Br)c3)=NO2)CCN(C(=O)CCCCCBr)CC1 (stereo not drawn) | inconclusive: 35.5 µM [inhibitor, single point]
11 | COc1ccc(-c2nn(-c3ccccc3)cc2C(=O)Nc2nc(CC(C)=O)ns2)cc1 | inconclusive: 12.6 µM [inhibitor, single point]
12 | Cc1ccc(NC(=O)COC(=O)c2c(-c3ccccc3)noc2C)cc1 | inactive
13 | CCCCN(C)C(=O)c1oc2ccc(S(=O)(=O)N3CCCCCC3)cc2c1C | inconclusive: 10 µM [inhibitor, partial curve, poor fit]
14 | O=C(CN1CCc2ccccc2C1)Nc1ccc(Br)cc1 | inactive
15 | C[C@H](CO)N1C[C@H](C)[C@@H](CN(C)C(=O)Nc2ccc(C(F)(F)F)cc2)Oc2ccc(NC(=O)Nc3ccc(C(F)(F)F)cc3)cc2C1=O | inconclusive: 10 µM [inhibitor, partial curve, poor fit]
16 | Cc1ccc2c(c1)C(c1ccccc1)N(C(=O)c1ccc(S(=O)(=O)N3CCCC3)cc1)CC(=O)N2 (stereo not drawn) | inconclusive: 35.5 µM [inhibitor, single point]
17 | Cc1ccc(SCC(=O)Nc2c(Br)cnn2C)cc1 | inactive
18 | Cc1ccc(NC(=O)CN2C(=O)CSc3ccc(S(=O)(=O)N(C)C)cc32)c(C)c1 | inconclusive: 3.98 µM [inhibitor, full curve, poor fit]
19 | Cc1ccc(NC(=O)CSc2cn(CC(=O)N3CCOCC3)c3ccccc23)cc1Cl | inconclusive: 35.5 µM [inhibitor, single point]
20 | C#CCOCCOCCOCCNc1nc(N2CCN(C(=O)[C@H](CCCCN)n3cc([C@@H](N)C(C)CC)nn3)CC2)nc(N2CCN(C(=O)[C@H](Cc3ccc(O)cc3)n3cc([C@@H](N)CC(C)C)nn3)CC2)n1 (stereo partly drawn) | inconclusive: 7.08 µM [inhibitor, partial curve, poor fit]
21 | Cc1ccc(N/N=C(/Sc2nnnn2-c2ccccc2)C(=O)c2ccccc2)cc1 | inconclusive: 35.5 µM [inhibitor, partial curve, poor fit]

Row | Compound | Potency
22 | CCOC(=O)CSc1cc(CSc2ccccc2)nc(-c2ccccc2)n1 | inconclusive: 0.562 µM [inhibitor, partial curve, poor fit]
23 | COc1ccc(OC)c(CN(CCN2CCOCC2)C(=O)Nc2cccc(Cl)c2)c1 | inconclusive: 22.4 µM [inhibitor, single point]
24 | CC(C)NC(=O)c1cc(-c2ccco2)nn1-c1ccc(Cl)cc1 | inconclusive: 6.31 µM [inhibitor, single point]
25 | CCOc1ccc(CNC(=O)Nc2ccc3c(c2)N(C)C(=O)c2ccccc2S3)cc1 | inconclusive: 4.47 µM [inhibitor, full curve, poor fit]
26 | COc1ccc(/C=C/c2c([N+](=O)[O-])c(=O)n(C)c(=O)n2C)c(OC)c1 | inactive
27 | O=C(NCCc1ccccc1Cl)C1CC(=O)N(C2CCCCC2)C1 (stereo not drawn) | inactive
28 | COC(=O)c1ccccc1NC(=O)CCC(=O)N1CC(C)Sc2ccccc21 (stereo not drawn) | inconclusive: 35.5 µM [inhibitor, single point]
29 | COC(=O)C(NC(=O)CCc1c(C)nc2cc(-c3cccc(F)c3)nn2c1C)C(C)C (stereo not drawn) | inconclusive: 1.26 µM [inhibitor, partial curve, poor fit]
30 | Cc1cccc(Oc2sc(C(=O)c3ccccc3)c(N)c2C#N)c1 | inconclusive: 35.5 µM [inhibitor, single point]
31 | COc1cc2c(cc1OC)C(c1ccccc1O)N(C1CC(=O)N(c3ccccc3)C1=O)CC2 (stereo not drawn) | inconclusive: 35.5 µM [inhibitor, single point]
32 | CC1(C)Oc2cc3oc(=O)ccc3cc2C[C@@H]1O | inconclusive: 5.62 µM [inhibitor, single point]
33 | CCOC(=O)Nc1ccc2c(c1)C(=NO)c1ccccc1-2 | inactive
34 | O=C(c1ccc(Cl)cc1Cl)N1CCN(c2ccc(N3CCOCC3)nn2)CC1 | inconclusive: 35.5 µM [inhibitor, single point]
35 | c1ccc(Cc2nn3c(Cn4nnc5ccccc54)nnc3s2)cc1 | inconclusive: 12.6 µM [inhibitor, partial curve]
36 | c1ccc(Sc2cccc3ccccc23)c(CNC2=NCCN2)c1 | inactive
37 | COc1ccc(S(=O)(=O)Nc2ccc3c(c2)C(=O)N([C@H](C)CO)C[C@H](C)[C@@H](CN(C)S(=O)(=O)c2ccc(OC)cc2)O3)cc1 | inconclusive: 35.5 µM [inhibitor, single point]
38 | S=C(Nc1ccccn1)Nc1ccccc1Cl | inconclusive: 35.5 µM [inhibitor, single point]
39 | CC(=O)Nc1sc2c(c1C(c1cccc(Cl)c1)N1CCN(CCO)CC1)CCCC2 (stereo not drawn) | inconclusive: 35.5 µM [inhibitor, single point]
40 | Cc1scc(C(=O)NNC(=S)NCC2CCCO2)c1-c1ccccc1 (stereo not drawn) | inactive
41 | CCCCNC(=O)c1cc2c(=O)n(CC)c3ccccc3c2s1 | inactive
42 | CCNC(=S)NNC(=O)c1csc2ccccc12 | inactive

Row | Compound | Potency
43 | CCCc1nc(SCC(N)=O)[nH]c(=O)c1CC | inconclusive: 5.62 µM [inhibitor, partial curve]
44 | O=C(Nc1cnn(Cc2ccc(Cl)cc2)c1)c1cccs1 | inactive
45 | CCn1c(=O)cc(SCC(=O)Nc2cc(Cl)ccc2OC)c2ccccc21 | inconclusive: 35.5 µM [inhibitor, single point]
46 | CCCCN1C(=N)N([C@@H](C)CN2CCC[C@H]2CN2C(N)=NC[C@@H]2Cc2ccccc2)C[C@H]1Cc1ccccc1 | inactive
47 | Cc1ccc(C(=O)N2CCN(c3ccc([N+](=O)[O-])c(NCc4ccco4)c3)CC2)cc1 | inconclusive: 11.2 µM [inhibitor, single point]
48 | COc1ccc(NC(=O)C2(C)CCN2C(=O)c2ccccc2CCc2ccccc2)cc1OC (stereo not drawn) | inactive
49 | Cc1cccc(NC(=S)NC(=O)c2cccs2)n1 | inactive
50 | O=C(O)c1ccccc1NS(=O)(=O)c1ccc(N/N=C/c2ccc(O)c(O)c2)c([N+](=O)[O-])c1 | inconclusive: 11.2 µM [inhibitor, partial curve, poor fit]
51 | CCOc1ccc2c(c1)c(=O)c(C(=O)c1ccc3c(c1)OCO3)cn2Cc1cccc(F)c1 | inconclusive: 10 µM [inhibitor, partial curve]
52 | CCOc1ccc(-n2c(C)nc3cc(C(=O)NCc4ccc(C)cc4)ccc32)cc1 | inconclusive: 35.5 µM [inhibitor, single point]
53 | O=C(NCCOc1ccccc1Cl)C(=O)c1c[nH]c2ccccc12 | inconclusive: 20 µM [inhibitor, single point]
54 | O=C(c1cc2c(s1)CCCC2)N1CCN(S(=O)(=O)c2ccccc2C(F)(F)F)CC1 | inconclusive: 35.5 µM [inhibitor, partial curve, poor fit]
55 | O=[N+]([O-])c1ccc(CNc2cccc(Cl)c2)s1 | inconclusive: 35.5 µM [inhibitor, single point]
56 | COc1ccc(-n2c(SCC(=O)N3CCOCC3)nc(O)cc2=O)cc1 | inconclusive: 35.5 µM [inhibitor, single point]
57 | CCCn1c(SCC(=O)Nc2nc3c(s2)CCCC3)nc2c1c(=O)n(C)c(=O)n2C | inactive
58 | CCOC(=O)C1CCCN(C(=O)Cn2ncc3c(C)n(Cc4ccc(F)cc4)c(C)c3c2=O)C1 (stereo not drawn) | inconclusive: 12.6 µM [inhibitor, single point]
59 | COc1cc(C(=O)OCC(=O)Nc2ccccc2C(=O)NC2CC2)c([N+](=O)[O-])cc1OC | inactive
60 | S=c1[nH]nc(-c2cccs2)n1/N=C/c1cn(-c2ccccc2)nc1-c1cccs1 | active: 17.8 µM
61 | Cc1cc(C)c(S(=O)(=O)/N=C2\C=C(Nc3ccc(C(=O)O)cc3)C(=O)c3ccccc32)c(C)c1 | inconclusive: 10 µM [inhibitor, partial curve, poor fit]
62 | Cc1ccc(C2NC(c3ccc4c(c3)OCO4)=CC(c3cc(Br)ccc3O)N2)cc1 (stereo not drawn) | inconclusive: 14.1 µM [inhibitor, single point]
63 | CC(C)OC(=O)c1c(NS(=O)(=O)c2ccccc2)sc2c1CCCC2 | inconclusive: 35.5 µM [inhibitor, single point]
